According to PubChem BioAssay AID488969 (Vanderbilt High Throughput Screening Facility, 2010):
Values joined by “and” are separate entries in the source; they are usually repeats but may differ in a detail not shown here. Equal entries are not always repeated. Over roughly 110,000 compounds, “z-score” has its median near -0.1; the highest 2% begin near 2. The list shows a part of the results. Active and inactive are the calls of the source.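 Rule for the calls: active = z-score in the third read window above 3 or below -3; inactive = the rest.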

target: Metabotropic glutamate receptor 8 (Rattus norvegicus) (UniProt P70579); test: mGluR8 Gi/Go-coupled signaling modulation – cell-based, rat, thallium flux, HTS, primary screen (AID 488969); details: HEK293 rat mGluR8, GIRK (G protein-gated inwardly rectifying potassium channel) thallium flux, FluoZin2; at 10 µM; stronger effect = higher value; submaximal glutamate (EC20) added with thallium
UniProt P70579, sequence (P70579 whole entry, looked up): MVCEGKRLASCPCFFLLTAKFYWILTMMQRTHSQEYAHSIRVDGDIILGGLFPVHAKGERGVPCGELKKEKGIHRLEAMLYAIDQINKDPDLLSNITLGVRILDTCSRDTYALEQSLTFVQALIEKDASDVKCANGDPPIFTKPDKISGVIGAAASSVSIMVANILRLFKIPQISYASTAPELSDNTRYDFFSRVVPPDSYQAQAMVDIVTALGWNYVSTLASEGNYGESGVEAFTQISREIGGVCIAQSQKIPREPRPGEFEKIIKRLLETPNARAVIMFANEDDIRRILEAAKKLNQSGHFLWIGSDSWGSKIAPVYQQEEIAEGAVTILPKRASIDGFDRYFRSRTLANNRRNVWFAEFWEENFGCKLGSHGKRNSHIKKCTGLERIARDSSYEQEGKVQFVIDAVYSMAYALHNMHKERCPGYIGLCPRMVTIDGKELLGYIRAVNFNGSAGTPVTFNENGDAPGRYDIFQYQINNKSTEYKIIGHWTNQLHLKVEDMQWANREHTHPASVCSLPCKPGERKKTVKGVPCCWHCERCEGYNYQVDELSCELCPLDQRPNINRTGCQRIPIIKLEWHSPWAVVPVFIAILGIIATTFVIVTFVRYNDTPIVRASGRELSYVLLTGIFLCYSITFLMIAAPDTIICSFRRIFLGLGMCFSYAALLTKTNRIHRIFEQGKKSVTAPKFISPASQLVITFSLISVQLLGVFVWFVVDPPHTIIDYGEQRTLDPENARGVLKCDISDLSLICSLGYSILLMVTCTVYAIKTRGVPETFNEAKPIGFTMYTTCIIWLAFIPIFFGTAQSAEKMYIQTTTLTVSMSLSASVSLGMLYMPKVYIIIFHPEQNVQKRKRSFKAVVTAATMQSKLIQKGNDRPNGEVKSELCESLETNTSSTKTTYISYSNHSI

Row | Compound | z-score
1 | O=C(NC(=S)Nc1ccc(C(=O)N2CCOCC2)cc1)c1ccc([N+](=O)[O-])cc1 | 0.905
2 | CN1CCN(C/C(=C2/N=C(c3ccccc3)OC2=O)N(C)C)CC1 | 1.46
3 | Cc1ccc(NC(=S)N2CCOCC2)cc1 | -0.0267
4 | CC(C)(C)c1cc(CN2CCOCC2)c(C(=O)O)o1 | 0.352
5 | Cc1ccc(N(CC(=O)NC2CCCCC2)C(=O)c2ccc(C)s2)cc1 | -0.156
6 | CC(C)(C)c1nnc(NS(C)(=O)=O)s1 | 0.0553
7 | CCOC(=O)c1ccc(NC(=O)c2cn(CCC#N)nc2-c2ccc3c(c2)OCCO3)cc1 | 0.545
8 | CCOc1ccc(Br)cc1S(=O)(=O)Nc1nc(CN2CCOCC2)nc2sc(C)c(C)c12 | -0.385
9 | Cc1cccc(C)c1OCC(=O)N/N=C/c1ccncc1 | 0.137
10 | Cc1cc2c(=O)n(Cc3ccco3)c(SCC(=O)N3CCCc4ccccc43)nc2s1 | -0.202
11 | O=C(CCCn1c(=O)oc2ccccc21)N1CCc2ccccc2C1 | -0.569
12 | CCOC(=O)CN1C(=O)C2(OCCCO2)c2ccccc21 | -0.0349
13 | COc1ccc(Br)cc1CN(C)CC(=O)Nc1cc(Cl)cc(Cl)c1 | -0.219
14 | CCOC(=O)C(NC(=O)Nc1ccc(F)cc1F)(Oc1ccc(F)cc1)C(F)(F)F (stereo not drawn) | -0.0622
15 | CCOC(=O)C1CCCN(C(=O)CSCc2ccccc2)C1 (stereo not drawn) | -1.22
16 | COc1cc(NC(=O)Cn2nc(C(F)(F)F)c(Br)c2C)cc([N+](=O)[O-])c1 | 1.1
17 | CCOC(=O)Cn1c(=O)oc2cc(S(=O)(=O)Nc3ccc(F)cc3)ccc21 | -0.211
18 | CN(C)c1ccc(CNC23CC4CC(CC(C4)C2)C3)cc1 | 0.345
19 | CCOC(=O)c1c(C)[nH]c(C(=O)COC(=O)c2ccccn2)c1C | -0.117
20 | CC(C)NC(=O)c1ccc(-c2ccc(Cl)c(C(F)(F)F)c2)o1 | -0.619
21 | COc1ccc(CCNc2oc(COc3ccccc3Cl)nc2C#N)cc1OC | -0.598
22 | Cc1cccc(NC(=O)Cc2coc3ccc4ccccc4c23)n1 | -0.454
23 | CCc1nc(N(CC)CC)c2oc3ccccc3c2n1 | -0.675

Row | Compound | z-score
24 | Cc1cc(Cl)c(S(=O)(=O)N2CC(C)OC(C)C2)cc1OCC(N)=O (stereo not drawn) | 0.759
25 | C/C(=C\c1cc(C(=O)O)c(C)o1)CO | -0.611
26 | CCC(C)(C)NC(=O)C(c1ccc(OC)cc1)N(CC1CCCO1)C(=O)CCC(=O)Nc1cc(C)on1 (stereo not drawn) | -0.119
27 | Cc1ccccc1NC(=S)NC(=O)c1cc(-c2ccccc2)nc2ccccc12 | active: 7.41
28 | Cc1cccc(C)c1NC(=O)C(c1ccc([N+](=O)[O-])cc1)N1CCCCC1 (stereo not drawn) | -0.169
29 | Nc1c(S(=O)(=O)c2ccccc2)nnn1-c1ccccc1 | 0.0213
30 | CCCc1cc(=O)[nH]c(SCCOc2ccc(OCC)cc2)n1 | -0.92
31 | CCN(C(=O)c1cc2cccc(OC)c2oc1=O)c1ccccc1 | -0.301
32 | Cc1ccc(Cn2c(=O)c3c(nc4n3CCCN4Cc3ccccc3)n(C)c2=O)cc1 | -0.605
33 | O=C(/C=C/c1ccc(Cl)c(Cl)c1)NCc1ccco1 | -0.305
34 | O=C(Nc1cc(C(F)(F)F)ccc1F)C1CCC1 | 0.411
35 | O=S1(=O)CCC(NC(=S)NCCNC(=S)NC2CCS(=O)(=O)C2)C1 (stereo not drawn) | 0.62
36 | CCCCSc1nc2c(cnn2-c2ccc(F)cc2)c(=O)[nH]1 | -0.151
37 | CCOc1ccc(-c2nnn(CC(=O)Nc3ccccc3OC)n2)cc1OCC | 0.731
38 | Cc1cc(/C(O)=C2\C(=O)C(=O)N(CCN(C)C)C2c2ccncc2)ccc1OCc1ccccc1 (stereo not drawn) | -0.175
39 | Cc1ccc(OC(=O)c2oc3ccc(F)cc3c2C)c(C)c1 | -0.0515
40 | Cn1c(=O)cc(OCC(=O)NC2CCCCC2)c2ccccc21 | -0.168
41 | O=C(Cc1ccccc1)Nc1ccc(Br)c(Cl)c1 | -0.178
42 | O=C(NCC1CCCO1)c1cc(C(=O)C2CC2)c[nH]1 (stereo not drawn) | 0.0716
43 | CC(C)C(NS(=O)(=O)c1cccc2nsnc12)C(=O)N1CCc2ccccc2C1 (stereo not drawn) | -0.0459
44 | CC1CCC(C(C)C)C(OC(=O)Cn2c(-c3ccccc3)[n+](C)c3ccccc32)C1 (stereo not drawn) | 1.15 and -0.176
45 | COc1cccc(C(=O)Nc2ccccc2N2CCCC2)c1 | -0.144
46 | Cc1c(NC(=O)C(C)N2CC(C)OC(C)C2)c(=O)n(-c2ccccc2)n1C (stereo not drawn) | 0.743

Row | Compound | z-score
47 | CCOC(=O)c1cn(-c2nc(-c3ccc(Cl)cc3)cs2)c2c(F)c(N3CC(C)OC(C)C3)c(F)cc2c1=O (stereo not drawn) | -0.177
48 | O=C(CC1CCCCC1)NC1CCCC1 | 0.0952
49 | Cc1cc(C)nc(SCC(=O)Nc2ccc(S(=O)(=O)NC(C)(C)C)cc2)n1 | -0.301
50 | Cn1cnnc1SCC(=O)Nc1ccc(Br)cc1F | -0.164
51 | CC(C)=C1C2C=CC1C(C(=O)Nc1cccc(C)c1)C2C(=O)O (stereo not drawn) | -0.299
52 | CC(C)CCOCc1nc2sc3c(c2c(=O)[nH]1)CCC(C)C3 (stereo not drawn) | -0.0689
53 | COC(=O)CC1c2cc(OC)c(OC)cc2CC(=O)c2cc(OC)c(OC)cc21 (stereo not drawn) | -0.195
54 | CC1(C)Cc2c(ccc3ccccc23)-c2nnc(-c3cccnc3)n21 | active: 3.16
55 | O=C(NO)c1ccc(OC(F)F)cc1 | 0.319
56 | Cc1ccc(CNC(=O)c2ccc3c(=O)n(CC4CCCO4)c(=S)[nH]c3c2)cc1 (stereo not drawn) | 0.402
57 | Cc1cnc(NC(=O)CSc2nnc(-c3ccccc3)o2)s1 | 0.201
58 | C=CCN(c1ccc(C(=O)N2CCN(c3ccc(F)cc3)CC2)cc1)S(C)(=O)=O | 0.686
59 | COc1cc(/C=C2\SC(=Nc3ccccc3)N(CCc3c[nH]c4ccccc34)C2=O)ccc1OC(C)C(=O)O (stereo not drawn) | -0.537
60 | Cc1[nH]c2ccccc2c1CCO | 0.113
61 | CC(C)Cn1c(=O)c(C(=O)N/N=C/c2cccc(F)c2)c(O)c2ccccc21 | 0.163
62 | O=C(c1ccccc1)c1ccc(N2CCOCC2)c(NC(=O)c2ccco2)c1 | 1.09
63 | CC(SCC(=O)NC(C)C1CC2CCC1C2)C(=O)O (stereo not drawn) | 0.297
64 | O=C(CSc1nc2c(c(=O)[nH]1)CCCC2)Nc1ccc(Cl)cc1F | -1.34
65 | COCCn1c(C)cc(C2=NNC(=Nc3ccccc3)SC2)c1C | -0.413
66 | COC(=O)c1c(NC(C)=O)sc2c1CCCCC2 | -0.338
67 | CC(=O)c1ccc(NC(=O)C2CCN(S(=O)(=O)c3cccc4cccnc34)CC2)cc1 | -0.751
68 | Cc1cc(/C=N/O)c(C)n1-c1ccc(Br)cc1 | -0.177
69 | COc1ccc(C(=O)Nc2nc(-c3cccs3)c(NC(C)=O)s2)cc1 | 0.337

Row | Compound | z-score
70 | COCCCNC(=O)c1cc2c(s1)CS(=O)(=O)C2 | -0.0125
71 | O=C(Cn1sc2ccccc2c1=O)NC12CC3CC(CC(C3)C1)C2 | -0.288
72 | CCOC(=O)CC1C(=O)NCCN1S(=O)(=O)c1ccc(Cl)cc1Cl (stereo not drawn) | 0.0867
73 | O=S(=O)(NCC1CCCO1)c1cccc(C(F)(F)F)c1 (stereo not drawn) | 1.34
74 | N#Cc1ccccc1OCCN1C(=O)c2ccccc2C1=O | -2.03
75 | Cc1nn(CCC#N)c2nc(-c3ccccc3)cc(C(F)(F)F)c12 | 0.5
76 | COCCn1c(CN2CCN(c3ccccc3)CC2)nc2c1c(=O)n(C)c(=O)n2C | 0.143
77 | O=C(c1ccc([N+](=O)[O-])cc1)N1CCSC1c1ccc(Cl)cc1 (stereo not drawn) | -0.503
78 | COc1ccc(S(=O)(=O)N/N=C\c2ccc3c(c2)OCO3)cc1 | -0.348
79 | CC1CCC(NCc2ccco2)CC1 (stereo not drawn) | -0.0226
80 | CCOC(=O)c1cc(-c2ccccc2)sc1NC(=O)c1ccc(OC)cc1 | -0.199
81 | CN(C)S(=O)(=O)c1ccc(Cl)c(C(=O)NCc2ccco2)c1 | -1.56
82 | CCOc1nc(S(=O)(=O)c2ccc(C)cc2)c(Cl)s1 | -0.802
83 | O=C(CN1C(=O)NC2(CCCC2)C1=O)Nc1ccc(F)c(F)c1F | 0.266
84 | COc1ncnc2c1oc1nc(CC(C)C)c3c(c12)CCCC3 | 0.0377
85 | O=C(NCCCN1CCOCC1)c1ccc(Sc2cccc(Cl)c2)c([N+](=O)[O-])c1 | -0.497
86 | Nc1n[nH]c(-c2cccc([N+](=O)[O-])c2)n1 | -0.125
87 | C/C(NC(=O)c1cccs1)=C1\C(=O)C[C@@H]2[C@H]1C2(C)C | -0.47
88 | COc1cc(NC(=O)c2cc3sccc3n2C)cc(OC)c1 | -0.0259
89 | c1coc(-c2nnc3sc(-c4cccs4)nn23)c1 | -0.343
90 | COC(=O)CCC(=O)NNC(=O)c1ccc(Br)cc1 | 0.129
91 | CC(C)[C@H](NC(=O)c1ccccc1)C(=O)OCC(=O)c1ccc2c(c1)NC(=O)CO2 | -0.276
92 | Cc1cc(C)c(NC(=O)c2ccccc2N(C)S(C)(=O)=O)c(C)c1 | 0.0701

Row | Compound | z-score
93 | O=C(CCN1C(=O)c2ccccc2C1=O)N1CCOCC1 | 0.585
94 | CCOc1ccc(OCCCCOc2ccccc2C(C)=O)cc1 | -0.286
95 | COc1ccc(CCNc2oc(-c3ccco3)nc2C#N)cc1 | -1.45
96 | O=C(NCc1ccccn1)c1ccc(Cl)cc1Cl | 0.136
97 | OCCNCC(O)Cn1ccc2ccccc21 (stereo not drawn) | 0.00536
98 | S=c1[nH]nc(-c2cccc(Br)c2)o1 | -0.124
99 | COc1ccccc1C1(CC(=O)O)CCOC(C)(C)C1 (stereo not drawn) | -0.25
100 | O=C(c1cc([N+](=O)[O-])ccc1N1CCN(S(=O)(=O)c2ccc(Cl)c(Cl)c2)CC1)N1CCOCC1 | -0.243
101 | CC(Nc1ccccc1)C(=O)Nc1ccc(F)cc1 (stereo not drawn) | -0.0628
102 | O=C(O)c1ccc(NC(=O)C2CC=CCC2C(=O)O)cc1 (stereo not drawn) | 0.0442
103 | Nc1nc(-c2ccccc2)cn1N | -0.0937
104 | Cc1cccc(/C(N)=N/OC(=O)c2cccs2)c1 | 0.161
105 | COC(=O)c1ccc(COC(=O)c2[nH]c(C)c(C(C)=O)c2C)o1 | -0.813
106 | COc1ccccc1NC(=O)N1CCCC1C(=O)Nc1ccc(NC(C)=O)cc1 (stereo not drawn) | -0.164
107 | C=CCn1c(COc2ccc(Cl)cc2)nnc1SCC(=O)N/N=C/c1ccccc1 | -0.13
108 | CC(Sc1nnc(-c2ccccc2)c(-c2ccccc2)n1)C(=O)N1CCc2ccccc21 (stereo not drawn) | -0.603
109 | CCOC(=O)c1c(NC(=O)CSc2nc3ccccc3s2)sc(C)c1C | 1.4
110 | CC1=C(C(=O)OC(C)C)C(c2cccnc2)n2ncnc2N1 (stereo not drawn) | 0.0927
111 | CCCCOc1ccc(NC(=O)C(=O)NCCC2=CCCCC2)cc1 | 0.0775
112 | CCCCCCC(=O)NN1CCN(C)CC1 | -0.0882
113 | CCOCCCNC(=O)C(NC(=O)c1ccc2c(c1)OCO2)c1ccc(OC)cc1 (stereo not drawn) | -0.371
